Some of the results follow.
What follows are compounds tested on T1, C. trachomatis L2/434/Bu expressing GFP (CTL2-GFP). Details: total inclusion area; 28.5 h, 10 µM; inhibitor.
T1 construct: L2/434/Bu GFP intracellular growth in HeLa cells
Parameters: species or system HeLa; C. trachomatis total inclusion area by high-content imaging, normalised to DMSO
From the text: In this process, we also complemented the assay described above with an imaging-based readout (Fig 1B). After measurements of bulk GFP and resorufin fluorescence, cells were fixed, stained with the DNA dye Hoechst, and imaged at a high-content imaging platform to detect chlamydial inclusions (GFP) and host cell nuclei (Hoechst). The total area and number of inclusions in individual wells and the number of nuclei then served as additional proxies for chlamydial growth and host cell viability. […] MICs were calculated as described above.

Structure (SMILES) | % of control remaining
CN1CCN(C(=O)c2cc(C(C)(C)C)nn2Cc2ccc(Cl)cc2Cl)CC1 [CBK107285] | 94.8264
CC1(C)CN=C(N2CCN(c3c4c(c(C#N)c5nc6ccccc6n35)CCC4)CC2)S1 [CBK263113] | 95.3721
O=c1[nH]cc([C@H]2C[C@@H](O)[C@@H](CO)O2)c(=O)[nH]1 [CBK201158] | 112.692
O=C1NN(c2ccc(Br)cc2)C(=O)/C1=C\c1ccc(-c2ccc3c(c2)C(=O)NC3=O)o1 [CBK262968] | 98.8516
Cc1cc(NC(=O)CN2CCC(CNc3ccccn3)C2)on1 (stereo not drawn) [CBK305760] | 68.876
OC(CN1CCC(O)(c2ccc(C(F)(F)F)cc2)CC1)c1ccccc1 (stereo not drawn) [CBK286323] | 97.5612
O=C(O)CC(Cc1ccccc1)c1ccc(Cl)cc1 (stereo not drawn) [CBK270231] | 97.7327
COCCn1c(SCc2cn3ccccc3c2C#N)nc(C)c1C [CBK306282] | 42.9337
Cc1ccc2c(c1)C(=O)NCC1(CCN(C(=O)c3ccco3)CC1)O2 [CBK282894] | 102.863
Clc1ccc(SCCN2CCOCC2)cc1 [CBK265055G] | 97.1202
CC(C)n1c(=O)n(CC(=O)N2CCCCCC2)c2cccnc21 [CBK283527] | 106.009
COc1cc(NC(=O)N2CCNC(=O)C2)cc(OC)c1OC [CBK155875] | 76.4319
CCc1ccc2c(c1)C(CCNC(=O)CCc1ccsc1)C(=O)N2 (stereo not drawn) [CBK305063] | 81.3353
Cc1ccc2[nH]c3c(c2c1)CCNC31CCN(C(=O)Nc2c(C)noc2C)CC1 [CBK047071] | 102.816
O=C(c1cccc(Cn2cccn2)c1)N1CCc2sccc2C1c1ccccc1 (stereo not drawn) [CBK285552] | 84.5904
COc1ccc([N+](=O)[O-])cc1NC(=O)C1C2CCC(C2=C(C)C)C1C(=O)O (stereo not drawn) [CBK263686] | 92.7743
COc1cccc(/C=N/NC(=O)CSc2nnc(C)n2-c2ccccc2)c1O [CBK262758] | 111.694
O=C(O)CCC(=O)N1CCN(c2ccc(C(=O)c3ccc(F)cc3)cc2)CC1 [CBK269119] | 96.0988
CC(C)Nc1nc2cc(Cl)c(Cl)cc2nc1Sc1cccc(O)c1 [CBK093732] | 40.1203
Cc1ccc(S(=O)(=O)Nc2ccc(Nc3cc(-c4cccc5oc6ccccc6c45)ncn3)cc2)cc1 [CBK090977] | 143.264
FC(F)(F)c1ccc(CNc2nccnc2-c2cccs2)cc1 [CBK036834] | 112.725
COc1ccc(C(=O)OC(C)(C)C)c(-c2cncc(NC3CCC(N)CC3)n2)c1 (stereo not drawn) [CBK037922] | 85.7603
COc1ccccc1CCCNC(=O)c1ccc2nc(C)[nH]c2c1 [CBK283258] | 89.07
CCN1CC2(CCN(CCCN(C)C)CC2)c2ccccc21 [CBK136988] | 86.3859
O=C(NC1CCCCC1)N1C[C@@H]2C[C@H](C1)c1ccc(-c3cccnc3)c(=O)n1C2 [CBK289183] | 112.813
CN(CC(=O)N1CCC[C@@H]2[C@H]1C/C=C/Cc1ccccc1OCC(=O)N2C)Cc1ccccn1 [CBK292078] | 107.314

Structure (SMILES) | % of control remaining
CS(=O)(=O)c1ccc(-c2nccnc2N[C@@H]2CCN(Cc3ccccc3)C2)cc1 [CBK037667] | 93.0812
O=C(NC(N1CCOCC1)C(Cl)(Cl)Cl)c1ccc(Cl)cc1 (stereo not drawn) [CBK261084] | 93.9512
O=S(=O)(Nc1ccc(-c2csnn2)cc1)c1ccc(F)cc1 [CBK050482] | 76.1635
O=C(O)CC1OC(=O)c2cc3c(cc21)C(=O)OC3CC(=O)O (stereo not drawn) [CBK262928] | 99.5896
Cn1nccc1C(=O)N1CCCC(c2cc3cccnc3[nH]2)C1 (stereo not drawn) [CBK284929] | 103.23
CCC(C)C(NC(=O)C1CCN(S(=O)(=O)c2ccc(OC)c(OC)c2)CC1)C(=O)O (stereo not drawn) [CBK297140] | 99.1626
Cc1ccc(C(=O)Cn2c3ccccc3n3ncnc23)cc1 [CBK263081] | 96.3099
NC(=O)C1CCN(C2=NC(=O)/C(=C/c3cn(-c4ccccc4)nc3-c3ccc(F)cc3)S2)CC1 [CBK265175] | 71.3335
CC1(C)Cc2c(ccc3ccccc23)C(NCC(=O)O)=N1 [CBK262559] | 95.8654
Cc1cccc2c3c([nH]c12)CCN(C(=O)C(C)N1CCOCC1)C3 (stereo not drawn) [CBK281600] | 103.358
CC(C)NC(=O)N1Cc2nc[nH]c2C[C@H]1c1nc(-c2ccccc2)no1 [CBK288996] | 101.231
c1ccc(-c2nnc(COc3ccc(-c4cnc5ccccc5n4)cc3)o2)cc1 [CBK269707] | 84.3463
COc1cccc(CN2CCCC(NC(=O)c3csc(C(C)=O)c3)C2)c1 (stereo not drawn) [CBK307297] | 89.2665
COc1ccc2c(c1)c(C)c(C(=O)N1CCCCC1CN(C)C)n2C (stereo not drawn) [CBK282190] | 94.8366
Cn1cncc1C(=O)N1Cc2ccccc2C1 [CBK200329] | 96.9004
CN1CCN(C(=O)c2cc(Br)cnc2NCc2cccnc2)CC1 [CBK076347] | 68.1476
COC(=O)C1=C(C)N(CCc2ccccc2)C(=O)C1(NC(=O)c1ccccc1)C(F)(F)F (stereo not drawn) [CBK267477] | 92.8481
Cc1cc(C)n(CC(C)NC(=O)C(c2ccccc2)N2CCCC2)n1 (stereo not drawn) [CBK281645] | 109.249
OCCNc1nc2cc(Cl)ccc2[nH]1 [CBK262295] | 109.432
COc1ccc(C(C)C)cc1-c1cnc2[nH]c(=O)n([C@H](C)c3ccccc3)c2n1 [CBK064181] | 65.3626
c1cncc(-c2csc(Nc3nc4cc5c(cc4s3)OCO5)n2)c1 [CBK287490] | 82.8948
OCCOc1cccnc1OCCN1CCCC1 [CBK039174] | 43.8296
O=S1(=O)N=c2cc3c(c4cccc1c24)=Nc1ccccc1N3 [CBK020253] | 84.3094
Cc1cc2ccccc2n1CCCNC(=O)c1ccc(=O)n(C)c1 [CBK282982] | 97.6689
Cc1ccc(NC(=O)C2CN(S(=O)(=O)c3ccccc3)CCN2S(=O)(=O)c2ccccc2)c(C)c1 (stereo not drawn) [CBK262693] | 105.281
O=C(NC1CCCCC1)NS(=O)(=O)c1ccc(CCNC(=O)c2cnc3ccccc3n2)cc1 [CBK013051] | 60.8742

Structure (SMILES) | % of control remaining
CN(C)CCN(Cc1ccccc1)Cc1ccc([N+](=O)[O-])cc1 [CBK261929] | 98.6854
Cc1ccc(N(Cc2cc3ccccc3nc2O)C(=O)c2cccnc2)cc1 [CBK265442] | 91.7827
Cc1cn(CC(=O)N2CCN(C(=O)c3ccco3)CC2)c(=O)[nH]c1=O [CBK144472] | 108.729
CCOc1ccc2c(c1)CN(CC(=O)Nc1cc(C)no1)CC2 [CBK305993] | 64.0411
COc1ccc([N+](=O)[O-])cc1COc1ccc2ccc(=O)oc2c1 [CBK264597] | 111.199
O=C1c2cccc3cccc(c23)C(=O)N1CCN1CCN(CC(O)COc2ccc3c(c2)OCO3)CC1 (stereo not drawn) [CBK074849C] | 89.9344
COc1ccc(N(CC(=O)O)S(=O)(=O)c2ccccc2)c(OC)c1 [CBK262415] | 97.5158
Cc1nc2c(ccc3nc(NC(=O)c4ccccc4)sc32)s1 [CBK287560] | 93.9115
O=C(CCN1C(=O)c2cccc([N+](=O)[O-])c2C1=O)Nc1ccccc1Cl [CBK263121] | 98.9734
Cc1ccn(CCC(=O)NC(Cc2ccsc2)c2nccs2)n1 (stereo not drawn) [CBK285137] | 97.0951
Cc1ccc(S(=O)(=O)Cc2cccc(C(=O)N3CCN(Cc4ccccc4)CC3)c2)cc1 [CBK269596] | 120.097
O=C(CSc1nnc(-c2ccncc2)s1)NNC(=O)c1cccs1 [CBK269600] | 94.1751
CC(=O)NCCNC(=O)c1cc(-c2cccc(S(C)(=O)=O)c2)cnc1NCC1CC1 [CBK076351] | 108.995
COc1ccc(C2Nc3ccccc3C(=O)N2Cc2ccccc2)cc1COc1ccc([N+](=O)[O-])cc1 (stereo not drawn) [CBK033690] | 94.4284
Cn1cc([C@H]2C[C@@H](O)[C@@H](CO)O2)c(=O)[nH]c1=O [CBK201171] | 120.594
C=CCn1c2ccccc2c2nnc(SCc3ccc([N+](=O)[O-])cc3)nc21 [CBK265630] | 97.0097
C=C(C)Cn1c(SCC(C)C)nnc1-c1ccccc1Cl [CBK200078] | 84.5954
CCC1CCCCN1C(=O)C1CCCCC1 (stereo not drawn) [CBK084528] | 95.826
O=C(CNC1CCN(Cc2ccccc2)CC1)Nc1ccc(Cl)cc1C(=O)c1ccccc1Cl [CBK074770] | 58.3809
COCCNCc1cccc(OCc2ccccc2)c1 [CBK269864C] | 72.5126
O=C(Cn1cccnc1=O)NCc1cccnc1OCC(F)(F)F [CBK305949] | 87.0779
O=C(Nc1ccc(F)cc1)c1c(NS(=O)(=O)c2ccc(Oc3ccccc3)cc2)sc2c1CCCC2 [CBK028653] | 81.8138
CN(C)CCn1c([C@@H]2CCCO2)cc2cccnc21 [CBK282288] | 91.4574
CCOc1cc(/C=C2/SC(=S)N(c3cccc(C(F)(F)F)c3)C2=O)ccc1OCC(=O)O [CBK264965] | 108.403
CCC1(C)CC(C(CCN)c2ccc(C)cc2)CCO1 (stereo not drawn) [CBK027350] | 74.1959
Cc1nc(-c2ccccc2)nc2c1c(N)nn2CC(=O)O [CBK287109] | 95.6795

From paper PMC12040169 (PLOS Biology, 2025)
